# In publication PMC4336329 (PLoS ONE, 2015):
# About 14,000 (4.5%) of roughly 310,000 compounds showed an effect of 50% or more. Effects have a minus sign here. The list shows a part of the results.
# Target: human ether-à-go-go-related gene (hERG) potassium channel (human, UniProt Q12809)
# Experiment: primary screen, population patch clamp on CHO cells stably expressing hERG
# 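Further: peak tail current of the secondary pulse compared with the same well before compound.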
# human ether-à-go-go-related gene (hERG) potassium channel, sequence (Q12809 whole entry, looked up): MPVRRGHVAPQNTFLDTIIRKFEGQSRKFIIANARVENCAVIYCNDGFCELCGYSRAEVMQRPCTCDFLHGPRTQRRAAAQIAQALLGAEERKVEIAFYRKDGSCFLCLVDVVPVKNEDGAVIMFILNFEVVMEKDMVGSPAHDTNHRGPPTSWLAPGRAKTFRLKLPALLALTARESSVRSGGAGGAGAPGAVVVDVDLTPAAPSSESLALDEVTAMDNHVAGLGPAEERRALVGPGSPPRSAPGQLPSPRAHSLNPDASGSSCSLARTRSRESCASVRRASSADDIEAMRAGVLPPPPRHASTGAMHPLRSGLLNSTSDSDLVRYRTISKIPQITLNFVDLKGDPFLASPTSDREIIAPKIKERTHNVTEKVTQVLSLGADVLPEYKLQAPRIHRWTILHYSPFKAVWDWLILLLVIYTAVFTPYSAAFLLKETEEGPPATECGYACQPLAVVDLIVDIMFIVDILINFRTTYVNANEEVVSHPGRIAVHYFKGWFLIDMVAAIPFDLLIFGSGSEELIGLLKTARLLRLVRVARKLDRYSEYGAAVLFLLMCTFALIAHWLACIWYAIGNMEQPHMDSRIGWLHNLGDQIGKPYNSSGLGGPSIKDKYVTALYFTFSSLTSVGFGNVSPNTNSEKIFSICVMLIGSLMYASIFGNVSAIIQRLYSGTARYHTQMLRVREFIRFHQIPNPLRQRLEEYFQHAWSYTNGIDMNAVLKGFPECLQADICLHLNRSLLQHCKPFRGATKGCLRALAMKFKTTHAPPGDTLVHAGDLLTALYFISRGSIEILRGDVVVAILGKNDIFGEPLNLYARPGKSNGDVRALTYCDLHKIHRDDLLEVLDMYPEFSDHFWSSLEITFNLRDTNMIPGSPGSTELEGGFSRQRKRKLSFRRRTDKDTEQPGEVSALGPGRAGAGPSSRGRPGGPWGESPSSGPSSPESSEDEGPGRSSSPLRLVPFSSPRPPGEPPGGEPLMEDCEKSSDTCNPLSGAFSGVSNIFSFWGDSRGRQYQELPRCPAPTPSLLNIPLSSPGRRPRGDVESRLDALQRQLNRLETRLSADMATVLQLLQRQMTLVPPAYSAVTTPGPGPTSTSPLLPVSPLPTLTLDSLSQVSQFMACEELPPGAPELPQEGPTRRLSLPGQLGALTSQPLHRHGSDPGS
row,SMILES,"hERG current change (%, negative = inhibition) at 10uM"
1,COc1ccc(-n2ncc3c(NCc4ccco4)ncnc32)cc1,-17.8%
2,Cl.O=C(Nc1nc2n(n1)C(c1ccccc1)C=C(c1ccccc1)N2)c1ccco1 (stereo not drawn),-16.2%
3,O=C(/C=C/c1ccc(Cl)cc1)N1CCN(c2ccc([N+](=O)[O-])c(N3CCOCC3)c2)CC1,-72.4%
4,Cc1cc(C)n(CC(=O)c2cccc(N)c2)n1,12.8%
5,CCc1ccc(C(O)(CC(C)C)C(CN2CCOCC2)c2ccccc2)cc1.Cl (stereo not drawn),-1.97%
6,CN(C)c1ccc(C(CNC(=O)c2ccccc2F)c2c[nH]c3ccccc23)cc1 (stereo not drawn),-8.6%
7,Clc1ccc(C2=Nn3c(Cn4nnc5ccccc54)nnc3SC2)cc1,21.3%
8,COc1ccc(Cn2c(CCC(=O)NCc3ccco3)nc3cccnc32)cc1,-37.6%
9,c1ccn2cc(-c3ccc4c(c3)OCCO4)nc2c1,1.08%
10,Oc1c(N=NC(=S)Nc2ccccc2F)c2ccccc2n1Cc1ccccc1,23.8%
11,COc1ccc2cc3[n+](cc2c1OC)CCc1cc2c(cc1-3)OCO2.Cl,3.74%
12,O=C(Oc1ccc(Cl)cc1)N1CCOCC1,13.5%
13,Cc1ccc(S(=O)(=O)CCC(=O)OCC(=O)Nc2ncc(Cl)cc2Cl)cc1,-16.2%
14,CC1CCCN(C(=O)CNC(=O)c2ccco2)C1 (stereo not drawn),28.4%
15,COc1ccc(NC(=O)n2ncc3cc(Cl)ccc32)cc1OC,21.3%
16,CCOC(=O)CC1C(=O)NCCN1S(=O)(=O)c1ccc(Cl)cc1 (stereo not drawn),-5.38%
17,CCCc1cc(=O)[nH]c(SCC(=O)Nc2ncc(S(=O)(=O)c3ccc([N+](=O)[O-])cc3)s2)n1,8.56%
18,CCCCNc1nc(NC)nc(Cl)c1SC,7.51%
19,CC(C)n1c(C(=O)OCC(=O)NCc2ccc3c(c2)OCO3)cc2sccc21,18.3%
20,CCc1ccc(N(CC(=O)NCc2ccco2)C(=O)CCC(=O)Nc2nccs2)cc1,2.1%
21,C[N+](C)(C)CCOP(=O)([O-])OP(=O)([O-])OC[C@H]1O[C@@H](n2ccc(N)nc2=O)[C@H](O)[C@@H]1O.[Na+],8.86%
22,COC(=O)c1ccc(NC(=O)c2ccc(NC(=O)c3ccco3)cc2)cc1,18.4%
23,O=C1CN(C(=O)NCCC(=O)NC2CCCCC2)c2ccccc2N1,-2.24%
24,CN1CCN(C(=O)/C=C/c2ccc(Cl)cc2)CC1,-44.8%
25,O=C(CSc1nc2cc(Cl)ccc2s1)c1ccco1,2.2%
26,COc1cccc(C2=CC(=O)CC(C)(C)C2)c1OC,-4.25%
27,COc1ccc2[nH]c(=O)c(CN(Cc3cccs3)C(=S)NCC3CCCO3)cc2c1 (stereo not drawn),-6.12%

row,SMILES,"hERG current change (%, negative = inhibition) at 10uM"
1,CCc1ccc(NC(=O)N(CCN2CCOCC2)Cc2ccc3c(c2)CCCN3CC)cc1,-31.7%
2,Cc1cccc([C@@H]2[C@@H]3C(=O)N(Cc4ccccc4)C(=O)[C@@H]3[C@]3(Cc4ccccc4)C(=O)N(c4ccc(C(F)(F)F)cc4)C(=O)N23)c1,9.93%
3,CCOc1ccc(NC(=O)C2CCCN2C(=O)NC2CCCCC2)cc1 (stereo not drawn),-14%
4,COc1ccc(S(=O)(=O)N2CCCC(C(=O)NC3CC3)C2)cc1Cl (stereo not drawn),1.86%
5,CCCCc1nc(N2CCNCC2)c(C#N)c2c1CSC(C)(C)C2,-64.7%
6,COc1ccc(Cl)cc1S(=O)(=O)N1CCCC(C(=O)N2CCCC2)C1 (stereo not drawn),-5.2%
7,Cc1noc(C)c1S(=O)(=O)N(CC(=O)NC1CCCC1)c1ccc(C(C)C)cc1,10.2%
8,COC(=O)c1c(NC(=O)c2ccco2)sc(C(=O)N(C)C)c1C,-11.1%
9,CC(C)n1c(NCc2ccccc2O)nc2ccccc21,-12.2%
10,CCCNc1nc2c(c(=O)[nH]c(=O)n2C)n1CCC(C)C,-0.274%
11,OC(CN1CCOCC1)Cn1c(-c2cccc(Cl)c2)nc2ccccc21 (stereo not drawn),-21.3%
12,Cc1nc2ccccc2c(=O)n1/N=C/c1ccc([N+](=O)[O-])o1,-53.3%
13,CC1CCN(S(=O)(=O)c2ccc(NC(=O)c3ccco3)cc2)CC1,-10.7%
14,Cc1ccnc(SCCn2c(N3CC(C)OC(C)C3)nc3c2c(=O)n(C)c(=O)n3C)n1 (stereo not drawn),-8.3%
15,O=C1CC(C(=O)Nc2ccc(Cl)c(Cl)c2)S/C(=N\N=C\c2ccco2)N1 (stereo not drawn),2.7%
16,CC(OC(=O)c1cc2ccccc2cc1O)C(=O)Nc1ccc(S(N)(=O)=O)cc1 (stereo not drawn),-11.8%
17,Cc1noc(C)c1S(=O)(=O)Nc1ccc(C(=O)N2CCC(C)CC2)cc1,-4.35%
18,COCCN1CCn2c(nc3cc([N+](=O)[O-])ccc32)C1,-13.2%
19,C=CCn1c(SCC(=O)c2c(N)n(C)c(=O)n(C)c2=O)nc2sc(C)c(C)c2c1=O,-5%
20,CCCNC(=O)c1noc2c1CCc1ccccc1-2,-4.93%
21,COc1ccc(OC)c(Nc2nc(-c3cccc([N+](=O)[O-])c3)nc3ccccc23)c1,-0.923%
22,COc1ccc(Cn2c(=N)c(C(=O)NCC3CCCO3)cc3c(=O)n4ccccc4nc32)cc1 (stereo not drawn),-82.2%
23,Cc1ccc(S(=O)(=O)N2CCCCC2)cc1NC(=O)COC(=O)Cc1ccc(Cl)cc1,-27.8%
24,COc1ccc(-c2c(C)nn3c(N4CCC(C(=O)NCCN(C)C)CC4)cc(C)nc23)cc1OC,-0.0367%
25,CCS(=O)(=O)c1ccc2c(c1)N(S(C)(=O)=O)CC(C(=O)NCCOC)O2 (stereo not drawn),2.19%
26,O=C(NCc1ccco1)c1cc(NS(=O)(=O)c2cccc([N+](=O)[O-])c2)ccc1O,5.88%
27,CCN(c1cccc(C)c1)S(=O)(=O)c1c(C)[nH]c(=O)[nH]c1=O,5.02%
